Measurements published in PubChem BioAssay AID2147 (National Center for Advancing Translational Sciences (NCATS), 2009).
Screen size: about 230,000 compounds; about 3,600 (1.6%) were called active. Inconclusive results, whose numbers are uncertain, are shown with a selection of clear calls. The call rests on the fitted dose curve; in most records, active means well fitted inhibition curve with a large enough effect (not every such curve was filed as active); inconclusive means small, poorly fitted or top-dose-only effect, or another doubt; inactive means no such curve, though single readings can be large or run the other way. Potencies of inconclusive entries are doubtful fits and often do not repeat.
Further: nearly all actives have a fitted effect of over 50% in size.
Potency means the concentration at half of the fitted maximal effect; tags describe the fitted curve by direction and shape.
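Wherever activity change, negative = inhibition is given: 0% = wells with enzyme and -100% = buffer wells without enzyme.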

Each compound was assayed against Lysine-specific demethylase 4E (Homo sapiens) (UniProt B2RXH2) (assay: qHTS Assay for Inhibitors of Human Jumonji Domain Containing 2E (JMJD2E)). Settings: JMJD2E catalytic domain, FDH-coupled NADH fluorescence (FDH is formaldehyde dehydrogenase); series mostly up to 57.1 µM; activity change, negative = inhibition: at the top concentration.
Chain of UniProt B2RXH2 (B2RXH2 whole entry, looked up, the tested form may be a part): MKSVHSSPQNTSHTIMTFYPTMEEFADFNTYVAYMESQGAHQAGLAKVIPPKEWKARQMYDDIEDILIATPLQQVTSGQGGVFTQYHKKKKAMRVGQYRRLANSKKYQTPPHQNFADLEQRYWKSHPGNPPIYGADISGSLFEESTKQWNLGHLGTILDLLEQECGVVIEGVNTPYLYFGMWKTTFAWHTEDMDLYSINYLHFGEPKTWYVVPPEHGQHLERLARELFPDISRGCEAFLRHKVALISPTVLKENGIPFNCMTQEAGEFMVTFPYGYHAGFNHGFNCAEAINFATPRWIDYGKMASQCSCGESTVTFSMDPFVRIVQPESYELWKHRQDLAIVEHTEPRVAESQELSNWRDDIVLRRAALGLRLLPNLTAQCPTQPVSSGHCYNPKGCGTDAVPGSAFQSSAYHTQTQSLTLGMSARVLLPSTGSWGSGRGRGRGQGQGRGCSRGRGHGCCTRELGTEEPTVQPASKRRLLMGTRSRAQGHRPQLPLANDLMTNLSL
For Cc1ccc(/C=N/NC(=O)c2ccncc2)o1, the “activity change, negative = inhibition” value was inactive: -0.133%. In the case of Cc1ccc(S(=O)(=O)N2CCN(C(=O)/C=C/c3ccco3)CC2)cc1, the “activity change, negative = inhibition” value is reported as inactive: -2.7%. With CCOc1ccc(OCC(=O)c2c(O)c3ccccc3oc2=O)cc1 the Potency was inconclusive: 31.6 µM [inhibitor, single point]. With CCOC(=O)Cn1c(-c2nonc2NC(=O)c2ccccc2F)nc2ccccc21 the Potency was inconclusive: 7.94 µM [inhibitor, full curve]. CCCC(C)NC(=O)c1ccc2[nH]c3c(c2c1)CC(C)CC3 (stereo unspecified) was tested, and the “activity change, negative = inhibition” value was inactive: 8.98%. For O=C(NNc1nc2cc3c(cc2s1)OCO3)c1ccc(F)cc1, the “activity change, negative = inhibition” value was inactive: -7.31%. With O=C(N/N=C/c1cc2c(cc1Br)OCO2)c1ccccn1 the Potency was inconclusive: 2.82 µM [inhibitor, partial curve]. NCCSc1c(-c2ccc(Cl)cc2)[nH]c2ccccc12 was tested, and the Potency was inconclusive: 20 µM [inhibitor, partial curve]. COc1cc(-c2csc(C)n2)ccc1O was tested, and the “activity change, negative = inhibition” value was inactive: 3.31%. With COc1cccc(CC(NC(C)=O)C(=O)NC2CCN(c3nc(C)cc(C)c3C#N)CC2)c1OC (stereo unspecified) the Potency was inconclusive: 25.1 µM [inhibitor, partial curve]. In the case of Cc1ccccc1-c1nn(-c2ccc(F)cc2F)cc1CNCCN(C)C, the “activity change, negative = inhibition” value is reported as inactive: -5.18%. For COC(=O)c1ccc(C2/C(=C(/O)c3ccc(OC)cc3)C(=O)C(=O)N2Cc2ccco2)cc1 (stereo unspecified), the Potency was inconclusive: 39.8 µM [inhibitor, single point]. For COc1ccc(CCNC(=O)CC2Oc3ccc(Cl)cc3NC2=O)cc1OC (stereo unspecified), the “activity change, negative = inhibition” value was inactive: 10.3%. In the case of COc1ccc(N2C3=C(CC4=C2CC(C)(C)CC4=O)C(=O)CC(C)(C)C3)cc1, the Potency is reported as inconclusive: 17.8 µM [inhibitor, partial curve]. Cc1noc(/C=C/N(C)C)c1S(=O)(=O)N1CCCC(C(=O)NC(C)c2ccccc2)C1 (stereo unspecified) was tested, and the “activity change, negative = inhibition” value was inactive: 2.81%. CN1Cc2c(N3CCOCC3)nc(SCCC#N)c(C#N)c2CC1(C)C was tested, and the Potency was inconclusive: 28.2 µM [inhibitor, single point]. In the case of S=C(Nc1ccccc1)c1ccccn1, the Potency is reported as “inactive”. In the case of CCN(CC)c1ccc(/C=N/NC(=O)c2cccc(N3CCCC3=O)c2)cc1, the Potency is reported as inconclusive: 31.6 µM [inhibitor, single point]. In the case of CC(=O)c1nn(-c2cccc(Br)c2)cc1C(=O)c1cccc2ccccc12, the Potency is reported as inconclusive: 31.6 µM [inhibitor, single point]. For O=C(Cn1cncn1)c1ccc(F)cc1F, the “activity change, negative = inhibition” value was inactive: -1.54%. In the case of CCCC(=O)Nc1nnc(COC)s1, the “activity change, negative = inhibition” value is reported as inactive: 2.17%. For C=CCN1c2ccccc2[C@]23C[C@@H](C(=O)OC)N(S(=O)(=O)c4ccc(C#N)cc4)C2=NC(C(=O)OC)=C(C(=O)OC)[C@H]13, the activity change, negative = inhibition was inactive: 12.1% [at 11.4 µM]. With COc1ccc(C(=O)Nc2nc3cc4c(cc3s2)OCO4)c(OC)c1 the Potency was inconclusive: 0.562 µM [inhibitor, full curve]. For Cc1cccc(C(=O)Nc2ccc(N3CCN(S(C)(=O)=O)CC3)cc2)c1, the Potency was inconclusive: 39.8 µM [inhibitor, single point]. With COc1cccc(/C=N/NC(=O)c2ccc(=O)[nH]n2)c1O the Potency was active: 12.6 µM. For CCOC(=O)C1CCCN(S(=O)(=O)c2ccc(S(=O)(=O)N(CC)CC)cc2)C1 (stereo unspecified), the “activity change, negative = inhibition” value was inactive: -1.07%. With CCN(CCCCCCN)c1ccc2c(=O)[nH][nH]c(=O)c2c1 the Potency was inconclusive: 31.6 µM [inhibitor, partial curve]. With Cn1cccc1Cc1nnc(SCC(=O)NCc2ccccc2)n1-c1ccc(F)cc1 the “activity change, negative = inhibition” value was inactive: -27.7%. Cc1c(C(=O)Nc2ccccc2)cn2c(nc3ccccc32)c1C#N was tested, and the Potency was inconclusive: 14.1 µM [inhibitor, partial curve]. With CCC(=O)Nc1cccc(C(=O)/C=C/c2cc(Br)ccc2OC)c1 the “activity change, negative = inhibition” value was inactive: 0.446%. COc1ccc2nc(C)c3c(c2c1)OC(C)C3 (stereo unspecified) was tested, and the Potency was inconclusive: 35.5 µM [inhibitor, single point]. With COCC(=O)OCC(=O)c1cc(C)n(-c2ccc(Br)cc2)c1C the Potency was inconclusive: 31.6 µM [inhibitor, single point]. In the case of O=[N+]([O-])c1ccc(N2CCCCC2)c(-c2nn[nH]n2)c1, the “activity change, negative = inhibition” value is reported as inactive: -21.8%. For CCC(=O)Nc1nc(C)c(-c2csc(Nc3ccccn3)n2)s1, the Potency was inconclusive: 25.1 µM [inhibitor, partial curve]. For c1ccc(CNc2ncnc3nc[nH]c23)cc1, the Potency was “inactive”. In the case of O=C(O)c1ccc(N/N=C/c2ccc(-c3ccc(Cl)cc3Cl)o2)cc1, the Potency is reported as inconclusive: 31.6 µM [inhibitor, partial curve]. For COc1ccc(-c2ccnc3cc(C(=O)O)nn23)cc1, the Potency was inconclusive: 28.2 µM [inhibitor, partial curve]. O=C(NCCc1ccccc1)C1CCN(Cc2ccccc2F)CC1 was tested, and the Potency was inconclusive: 20 µM [inhibitor, single point]. O=C(CCN1CCC(c2ccc(Cl)s2)=N1)c1ccc(Cl)s1 was tested, and the “activity change, negative = inhibition” value was inactive: -1.09%. In the case of Cc1ccc(S(=O)(=O)c2nc(C(C)(C)C)oc2N2CCOCC2)cc1, the Potency is reported as inconclusive: 39.8 µM [inhibitor, single point]. For O=C(CSc1oc(-c2cccs2)nc1S(=O)(=O)c1ccc(F)cc1)NCC1CCCO1 (stereo unspecified), the “activity change, negative = inhibition” value was inactive: 2.77%. For COc1ccc(NC(=O)CCC(=O)N/N=C/c2ccncc2)cc1, the “activity change, negative = inhibition” value was inactive: 4.57%. In the case of COC(=O)c1c(NC(=O)COC(=O)c2ccccc2O)sc2c1CCCCC2, the Potency is reported as inconclusive: 35.5 µM [inhibitor, single point]. In the case of NC1=NC(=O)/C(=C/c2cn(CCC(=O)O)nc2-c2ccc(Cl)cc2)S1, the Potency is reported as inconclusive: 39.8 µM [inhibitor, single point]. In the case of CCCCCCCCCCCC(CC1OC(=O)C1CCCCCC)OC(=O)C(CC(C)C)NC=O (stereo unspecified), the Potency is reported as inconclusive: 35.5 µM [inhibitor, single point]. In the case of Cc1ccccc1S(=O)(=O)c1cc(C#N)c(=O)[nH]c1N, the Potency is reported as inconclusive: 39.8 µM [inhibitor, single point]. COc1ccc2cc(C(=O)N3CCOCC3)sc(=O)c2c1OC was tested, and the “activity change, negative = inhibition” value was inactive: -1.81%. CN(C1=C(NC(=O)c2ccc(Cl)cc2)C(=O)c2ccccc2C1=O)c1ccccc1 was tested, and the “activity change, negative = inhibition” value was inactive: 2.63%. CC1(C)CC2CC(C)(CN2C(=O)COC(=O)c2ccc(Cl)c(N)c2)C1 (stereo unspecified) was tested, and the Potency was inconclusive: 28.2 µM [inhibitor, single point]. CCc1ccc(/C=c2\s/c(=C\C(=O)C(C)(C)C)[nH]c2=O)cc1 was tested, and the Potency was inconclusive: 25.1 µM [inhibitor, single point]. For O=C1NCC2=C1C(c1ccccc1)Nc1ccccc1N2 (stereo unspecified), the Potency was inconclusive: 1 µM [inhibitor, full curve]. For Cc1cc(OCCOc2cccc3cccnc23)cc(C)c1Cl, the Potency was inconclusive: 3.55 µM [inhibitor, partial curve]. For CCC1=NN(C(=O)c2ccc(Br)cc2)C(O)(c2ccccc2)C1 (stereo unspecified), the Potency was inconclusive: 39.8 µM [inhibitor, single point]. O=C(Cn1c(-c2cscn2)nc2ccccc21)Nc1ccccc1F was tested, and the Potency was inconclusive: 31.6 µM [inhibitor, single point]. CCCCC(=O)N/N=C/c1ccc(N2CCOCC2)c([N+](=O)[O-])c1 was tested, and the “activity change, negative = inhibition” value was inactive: 1.1%. COc1ccc(/C=C2/N=C(SC3CCOC3=O)N(c3cccc(OC)c3)C2=O)cc1 (stereo unspecified) was tested, and the “activity change, negative = inhibition” value was inactive: 5.18%. In the case of COC(=O)CSc1nnc(CNC(=O)c2ccc(OC)c(OC)c2)n1C, the “activity change, negative = inhibition” value is reported as inactive: -2.01%. With Cc1ccc2c(c1)C(O)(C1COC(C)(C)CC1=O)C(=O)N2C (stereo unspecified) the “activity change, negative = inhibition” value was inactive: 10.2%. For CC(C)c1nnc(NC(=O)CCC(=O)Nc2ccc3cn[nH]c3c2)s1, the “activity change, negative = inhibition” value was inactive: 9.1%. For CC(C)(C)c1ccc(OCCN2CCCC2)cc1, the Potency was inconclusive: 35.5 µM [inhibitor, single point]. CCN(CC)S(=O)(=O)c1ccc2oc(SCC3CN=C(c4ccc(OC)cc4)S3)nc2c1 (stereo unspecified) was tested, and the Potency was inconclusive: 39.8 µM [inhibitor, single point]. For O=[N+]([O-])c1cccnc1SCc1c(F)cccc1Cl, the “activity change, negative = inhibition” value was inactive: 0.643%. Cc1ccc(CC(=O)Nc2ccc(F)c([N+](=O)[O-])c2)cc1C was tested, and the “activity change, negative = inhibition” value was inactive: -15.5%. For COc1cc(NC(=O)c2ccc(Cl)cc2)c(OC)cc1NC(=O)CN1CCCCC1, the Potency was inconclusive: 6.31 µM [inhibitor, partial curve]. Cc1nn(C)c(N)c1-c1ccccc1 was tested, and the “activity change, negative = inhibition” value was inactive: 7.44%. For COC(=O)c1ccccc1NC(=O)NCC1CCCO1 (stereo unspecified), the Potency was inconclusive: 31.6 µM [inhibitor, partial curve]. For COc1ccc(CCn2c(=N)c(C(=O)NCc3ccco3)cc3c(=O)n4cccc(C)c4nc32)cc1, the Potency was inconclusive: 39.8 µM [inhibitor, single point]. O=C(NCc1ccccc1)NC1CC2CCC(C1)N2Cc1ccco1 (stereo unspecified) was tested, and the “activity change, negative = inhibition” value was inactive: -0.424%. With Nc1ccc2c(c1)nnn2-c1ccccc1 the Potency was inconclusive: 28.2 µM [inhibitor, partial curve]. With CCc1nnc(NC(=O)CSc2nnc(-c3ccccc3O)n2-c2ccc(C)cc2)s1 the Potency was inconclusive: 35.5 µM [inhibitor, single point]. In the case of O=C(Oc1c(CN2CCOCC2)cc(Cl)c2cccnc12)c1cccs1, the Potency is reported as active: 25.1 µM. With O=C(O)CSc1nnc(COc2cccc3cccnc23)n1-c1cccc(C(F)(F)F)c1 the Potency was inconclusive: 28.2 µM [inhibitor, single point]. In the case of COc1cc(/C=C/C(=O)NCC(=O)N2CCC(N(C)CCN3CCOCC3)CC2)ccc1OC(C)C, the Potency is reported as inconclusive: 31.6 µM [inhibitor, partial curve]. O=C1CC(c2ccccc2)Cc2nc3ncnn3cc21 (stereo unspecified) was tested, and the “activity change, negative = inhibition” value was inactive: -25.2%. With CNc1nc(-c2ccc(OC)cc2)c(-c2ccc(OC)cc2)s1 the Potency was inconclusive: 35.5 µM [inhibitor, single point]. In the case of O/N=C/c1nc2cc(Cl)ccc2o1, the Potency is reported as inconclusive: 20 µM [inhibitor, partial curve].
